The whole screen tested about 310,000 compounds, of which about 18,000 (5.8%) were called active. Inconclusive results, whose numbers are uncertain, are shown with a selection of clear calls. The call rests on the fitted dose curve; in most records, active means well fitted inhibition curve with a large enough effect; inconclusive means small, poorly fitted or top-dose-only effect, or another doubt; inactive means no such curve, though single readings can be large or run the other way. No potency is given beside an inconclusive call; the fits are too rough.
Assay: Primary qHTS for delayed death inhibitors of the malarial parasite plastid, 48 hour incubation
Settings: P. falciparum luciferase growth in erythrocytes; series mostly up to 28.7 µM; activity change, negative = inhibition: at the top concentration
Procedure, shortened: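 Luciferase-expressing parasites in RBCs, 2% Hct / 0.1% parasitemia final; RPMI 1640 + 0.5% Albumax; 37 C, 5% CO2, one generation; luminescence read-out, lower signal = inhibition.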
On the % scale 0 is the no-effect control and ±100 the full control effect; potency means the concentration at half of the fitted maximal effect; tags describe the fitted curve by direction and shape.

SMILES	Potency	activity change, negative = inhibition
C#CCOCCOCCOCCNc1nc(N2CCN(C(=O)CCCCCCCCCCNC(=O)[C@H](CCCCN)n3cc(CCCC(=O)O)nn3)CC2)nc(N2CCN(C(=O)CCCCCCCCCCNC(=O)[C@H](CCCCN)n3cc(CCCC(=O)O)nn3)CC2)n1	inconclusive [inhibitor, partial curve]	–
CC1(C)CC(=O)/C(=C(/O)CCCN2C(=O)c3ccccc3C2=O)C(=NC(C)(C)C)C1	–	inactive: -22.6%
COc1cccc(CNC(=O)N2CCN(S(=O)(=O)c3ccc(Cl)cc3)CC2)c1	–	inactive: -15.6%
Cc1ccc(S(=O)(=O)N(C)c2ccc(C(=O)N3CCOCC3)cc2)cc1	–	inactive: 18.3%
CC(Nc1cc(N2CCN(S(C)(=O)=O)CC2)ccc1[N+](=O)[O-])c1ccccc1 (stereo not given)	inconclusive [inhibitor, partial curve, poor fit]	–
Cc1nc(NC(=O)/C=C/c2ccccc2)sc1C(=O)Nc1cccc(Cl)c1	inconclusive [inhibitor, single point]	–
CCC(=NCCc1c[nH]c2ccccc12)c1c(O)n(-c2ccc(C)cc2)c(=O)[nH]c1=O	inconclusive [inhibitor, single point]	–
CCOC(=O)c1ccc(NC(=O)CSCc2ccco2)cc1	inconclusive [inhibitor, single point]	–
CCOCCc1nnc(NC(=O)Cc2c(F)cccc2Cl)s1	–	inactive: -14.5%
O=C(NCc1ccccc1)/C(=C/c1ccc(OC(F)F)cc1)c1ccccc1	–	inactive: 15.6%
C=CCN(Cc1nc(-c2cc(OC)ccc2OC)oc1C)C1CCS(=O)(=O)C1 (stereo not given)	–	inactive: 7.01%
O=C(CSc1nccc(-c2ccc(Br)cc2)n1)NCCc1ccccc1	inconclusive [inhibitor, single point]	–
Cc1cc(C)n(CC(O)COc2c(C)cccc2C)n1 (stereo not given)	inconclusive [inhibitor, partial curve, poor fit]	–
COc1cccc(CNc2ccc(C)c(Cl)c2)c1	–	inactive: 7.73%
CCN(CC)S(=O)(=O)c1ccc2oc(SCC(=O)Nc3cc(C)on3)nc2c1	inconclusive [inhibitor, partial curve, poor fit]	–
O=C(NCCc1nc(-c2ccccc2)cs1)c1ccc(Br)cc1	–	inactive: 8.57%
CC(C)c1ccc(NC2CCCN(C(=O)CC3CCCC3)C2)cc1 (stereo not given)	inconclusive [inhibitor, single point]	–
CCc1nnc(NC(=O)c2cc(Cl)ccn2)s1	inconclusive [inhibitor, partial curve]	–
Cn1cncc1C#Cc1ccc2cc(C(C)(C)O)oc(=O)c2c1	inconclusive [inhibitor, partial curve, poor fit]	–
CCOC(=O)Cc1nc(-c2ccc(Cl)cc2)n[nH]1	–	inactive: 33.1%
CC(C)(C)[C@H]1C=C(C(=O)NCc2nc3ccccc3[nH]2)O[C@@H](OCc2ccc(CO)cc2)C1	inconclusive [inhibitor, single point]	–
Cc1c(NC(=O)c2cnc(Cl)c(Cl)c2)c(=O)n(-c2ccccc2)n1C	–	inactive: 15.9%
CC(=O)c1ccc(S(=O)(=O)NCC2(N3CCOCC3)CCCCC2)cc1	inconclusive [inhibitor, single point]	–

SMILES	Potency	activity change, negative = inhibition
O=C1C(=O)c2ccc(-c3ccccc3)cc2-c2ccccc21	active: 10.4 µM	–
COc1ccc(-[n+]2c(-c3ccccc3)cc(-c3ccc(C)cc3)cc2-c2ccccc2)cc1	active: 0.928 µM	–
COc1ccc(C(O)Cn2c(=N)n(CCCN(C)C)c3ccccc32)cc1 (stereo not given)	inconclusive [inhibitor, partial curve, poor fit]	–
COc1ccc(C(=O)Nc2ccccc2C(=O)Nc2ccccc2C(=O)O)cc1	–	inactive: -1.98%
COc1ccccc1NC(=O)c1ccccc1NC(=O)c1ccccn1	–	inactive: -7.91%
CC1Cc2ccccc2N1CC(=O)Nc1ccc2c(c1)OCCCO2 (stereo not given)	inconclusive [inhibitor, single point]	–
COc1ccc(CN2CCNC(=O)C2CC(=O)NC2CC(C)(C)CC(C)(C)C2)cc1OC (stereo not given)	inconclusive [inhibitor, single point]	–
C=CC[n+]1ccc(/C=C2\C=Cc3cc(C)ccc3N2CC)c2ccccc21	inconclusive [inhibitor, full curve, poor fit]	–
COc1ccc(S(=O)(=O)NNC(=O)c2cc3ccccc3o2)cc1	–	inactive: 5.31%
CCOc1ccccc1NC(=O)CCc1nnc2ccc(N3CCC4(CC3)OCCO4)nn12	inconclusive [inhibitor, partial curve, poor fit]	–
CN(C)N1C(N)=C(C#N)C(c2ccccc2Cl)C2=C1CCCC2=O (stereo not given)	inconclusive [inhibitor, partial curve]	–
CC(C)OCCCNC(=O)c1c(N)n(CC2CCCO2)c2nc3ccccc3nc12 (stereo not given)	active: 3.29 µM	–
CC(C)(C)C1CCC2(CC1)NC(=S)N(c1ccccc1)N2 (stereo not given)	inconclusive [inhibitor, single point]	–
Cc1oc2c(CN3CCCCC3C)c(O)ccc2c(=O)c1-c1ccccc1 (stereo not given)	inconclusive [inhibitor, partial curve, poor fit]	–
Cc1sc2c(c1C)c(=O)n(-c1cccc(C(F)(F)F)c1)c(=O)n2CC(=O)NCc1ccco1	–	inactive: 1.19%
CC(NC(=S)NC(=O)c1ccccc1Br)c1ccccc1 (stereo not given)	inconclusive [inhibitor, partial curve, poor fit]	–
COc1cccc2cc(C(=O)NCC3CCCO3)c(=O)oc12 (stereo not given)	–	inactive: 27.4%
Cc1ccccc1-c1cc2nc(C)c(C)c(=O)n2[nH]1	active: 7.38 µM	–
O=C(CO)C(O)C(O)C(O)CO (stereo not given)	inconclusive [inhibitor, single point]	–
CCN(CC)S(=O)(=O)c1cc(NC(=O)c2ccc3c(c2)NC(=O)C(C)S3)ccc1C (stereo not given)	inconclusive [inhibitor, partial curve, poor fit]	–
CCOC(=O)c1cc(-c2ccncc2)nc2c1c(C)nn2-c1ccccn1	active: 5.86 µM	–
O=C(Nc1ccc2c(c1)OCO2)c1ccc(Cl)cc1Cl	inconclusive [inhibitor, partial curve, poor fit]	–
